Reference: the antibiotic and cytotoxicity screens of Wong et al. (2023)
The other results are listed elsewhere or left out.

The compounds below were run on HSkMC (human skeletal muscle cells) (assay: cytotoxicity call (relative viability < 0.9)). Settings: 10 µM.
With Cc1noc(C)c1S(=O)(=O)N(C)C[C@H]1Oc2ccc(NC(=O)Nc3ccc4c(c3)OCO4)cc2CC(=O)N([C@@H](C)CO)C[C@H]1C the cytotoxicity call was “inactive”. In the case of OC[C@@H](O)[C@@H](O[C@@H]1O[C@H](CO)[C@H](O)[C@H](O)[C@H]1O)[C@H](O)[C@@H](O)CO, the cytotoxicity call is reported as “inactive”. With C[C@@H]1CCCCO[C@H](CN(C)Cc2ccncc2)[C@@H](C)CN([C@H](C)CO)C(=O)c2cc(NS(C)(=O)=O)ccc2O1 the cytotoxicity call was “inactive”. With COc1ccc(S(=O)(=O)N(C)C[C@@H]2Oc3c(NS(=O)(=O)c4ccc(C)cc4)cccc3C(=O)N([C@@H](C)CO)C[C@H]2C)cc1 the cytotoxicity call was “inactive”. With O=C(C[C@@H]1C[C@H]2c3cc(NS(=O)(=O)c4ccc(F)cc4)ccc3O[C@H]2[C@@H](CO)O1)NCc1ccccc1 the cytotoxicity call was “inactive”. In the case of COc1cc2c(N3CCN(C(=O)Nc4ccc(OC(C)C)cc4)CC3)ncnc2cc1OCCCN1CCCCC1, the cytotoxicity call is reported as “inactive”. In the case of COc1ccc(-c2cnc3c(c2)C(=O)N([C@H](C)CO)C[C@H](C)[C@H](CN(C)S(=O)(=O)c2ccccc2)O3)cc1, the cytotoxicity call is reported as “inactive”. CCNC(=O)C[C@H]1CC[C@@H](NC(=O)C2CCOCC2)[C@@H](CO)O1 was tested, and the cytotoxicity call was “inactive”. With Cn1cnc(S(=O)(=O)N[C@H]2C=C[C@@H](CC(=O)N3CCN(c4ccccc4)CC3)O[C@H]2CO)c1 the cytotoxicity call was “inactive”. With C[C@@H]1CN([C@@H](C)CO)C(=O)c2cc(NC(=O)Nc3ccc4c(c3)OCO4)ccc2O[C@@H](C)CCCCO[C@@H]1CN(C)S(=O)(=O)c1ccc(F)cc1 the cytotoxicity call was “inactive”. In the case of O=C(C[C@H]1C[C@H]2c3cc(NC(=O)C4CCOCC4)ccc3O[C@H]2[C@@H](CO)O1)NCc1cc(F)ccc1F, the cytotoxicity call is reported as “inactive”. In the case of C[C@@H]1CN([C@@H](C)CO)C(=O)c2cc(NC(=O)Cc3cn(C)c4ccccc34)ccc2O[C@@H]1CN(C)Cc1ccc(C(F)(F)F)cc1, the cytotoxicity call is reported as “inactive”. For C[C@H]1CN([C@@H](C)CO)C(=O)CCCn2cc(nn2)CO[C@@H]1CN(C)S(=O)(=O)c1ccc(-n2cccn2)cc1, the cytotoxicity call was “inactive”. For CC(C)(C)C#CC(=O)C#CC(C)(C)C, the cytotoxicity call was “inactive”. Cc1noc(C)c1NC(=O)Nc1ccc2c(c1)C(=O)N([C@H](C)CO)C[C@H](C)[C@@H](CN(C)Cc1ccc(C(=O)Nc3ccccc3N)cc1)O2 was tested, and the cytotoxicity call was “inactive”. In the case of CCN1CCN(C2=C(NS(=O)(=O)c3ccc(Br)cc3)C(=O)c3ccccc3C2=O)CC1, the cytotoxicity call is reported as “inactive”. For C[C@@H]1CN([C@H](C)CO)C(=O)c2cc(NS(=O)(=O)c3ccc(Cl)cc3)ccc2O[C@@H](C)CCCCO[C@H]1CN(C)C(=O)Nc1ccc(C(F)(F)F)cc1, the cytotoxicity call was “active”. For C[C@@H]1CCCCO[C@@H](CN(C)Cc2ccccc2)[C@@H](C)CN([C@H](C)CO)C(=O)c2cc(NC(=O)Cc3ccccc3)ccc2O1, the cytotoxicity call was “inactive”. In the case of C[C@H](CO)N1C[C@H](C)[C@@H](CN(C)C(=O)Nc2ccc(C(F)(F)F)cc2)Oc2c(NS(=O)(=O)c3ccc(F)cc3)cccc2C1=O, the cytotoxicity call is reported as “inactive”. In the case of Cc1noc(C)c1NC(=O)N(C)C[C@@H]1Oc2ccc(NC(=O)c3ccncc3)cc2CC(=O)N([C@@H](C)CO)C[C@@H]1C, the cytotoxicity call is reported as “inactive”. For Cn1cnc(S(=O)(=O)N2C[C@H](O)COC[C@@H]3O[C@H](CC(=O)NCc4cc(F)cc(F)c4)CC[C@H]32)c1, the cytotoxicity call was “inactive”. In the case of C[C@@H]1CCCCO[C@H](CN(C)Cc2ccc(C(=O)O)cc2)[C@@H](C)CN([C@H](C)CO)C(=O)c2cc(NC(=O)Cc3ccccc3)ccc2O1, the cytotoxicity call is reported as “inactive”. With C[C@H]1CN([C@@H](C)CO)C(=O)c2cc(NC(=O)CCCN(C)C)ccc2O[C@@H]1CN(C)C(=O)Nc1ccc2c(c1)OCO2 the cytotoxicity call was “inactive”. For C[C@@H]1CN([C@H](C)CO)S(=O)(=O)c2ccc(-c3ccncc3)cc2O[C@H]1CN(C)Cc1ccc(Oc2ccccc2)cc1, the cytotoxicity call was “inactive”. For C[C@H](CO)N1C[C@H](C)[C@@H](CN(C)S(=O)(=O)c2cn(C)cn2)Oc2ccc(NS(=O)(=O)c3cccs3)cc2C1=O, the cytotoxicity call was “inactive”. C[C@H](O)CC1=C[C@H](O)[C@@H](C)OC1=O was tested, and the cytotoxicity call was “inactive”. C[C@H]1CN([C@@H](C)CO)C(=O)Cc2cc(NS(=O)(=O)c3cccs3)ccc2O[C@@H]1CN(C)S(=O)(=O)c1cccs1 was tested, and the cytotoxicity call was “inactive”. In the case of C[C@H](O)c1nc(=O)c2ccccc2[nH]1, the cytotoxicity call is reported as “inactive”. In the case of CO[C@H]1C[C@@H](C[C@@H](C)[C@H]2CC(=O)[C@@H](C)/C=C(\C)[C@@H](O)[C@@H](OC)C(=O)[C@@H](C)C[C@@H](C)/C=C/C=C/C=C(\C)[C@H](OC)C[C@H]3CC[C@@H](C)[C@@](O)(O3)C(=O)C(=O)N3CCCC[C@@H]3C(=O)O2)CC[C@@H]1O, the cytotoxicity call is reported as “inactive”.
